In patent US20210332137A1 (Five Prime, published 2021):
Blank lines part the entries; values can stand above or below the binder they belong to.

Biological target: T1, B7-H4 IgV-huIgG1 (human)
T1 construct: It starts at Met 1 of B7-H4, so it includes the N-terminal leader; It is the IgV part of human B7-H4 fused to a human IgG1 Fc; also called human B7-H4 protein
Test: SPR; antibody captured on anti-human Fab, B7-H4 IgV-huIgG1 flowed at 0-300 nM; 1:1 model
Protocol: Briefly, anti-human Fab antibody was immobilized on a carboxyl-derivatized SPR chip surface, and anti-B7-H4 antibodies were captured on the resulting surface at 5 ug/ml for 30 seconds. B7-H4 IgV-huIgG1 at various concentrations (0 nM, 3.7 nM, 11.1 nM, 33.3 nM, 100 nM, and 300 nM) was then flowed over the surface and allowed to bind to the anti-B7-H4 antibodies during the association phase, followed by a buffer wash during the dissociation phase.
Thus there is no impact of the glycosylation on binding.

Chain of B7-H4 IgV-huIgG1 (chain, as listed by the source limits assumed): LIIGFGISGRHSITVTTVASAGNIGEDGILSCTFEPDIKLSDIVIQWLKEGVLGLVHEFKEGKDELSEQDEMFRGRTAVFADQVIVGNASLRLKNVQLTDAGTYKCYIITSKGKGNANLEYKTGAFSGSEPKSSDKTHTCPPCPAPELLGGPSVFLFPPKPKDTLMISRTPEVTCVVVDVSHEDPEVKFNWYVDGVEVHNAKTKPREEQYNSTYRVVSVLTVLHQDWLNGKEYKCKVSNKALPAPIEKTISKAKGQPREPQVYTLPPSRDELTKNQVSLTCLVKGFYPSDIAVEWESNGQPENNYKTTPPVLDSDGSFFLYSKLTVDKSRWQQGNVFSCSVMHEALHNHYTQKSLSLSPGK

binding result: binds
B1: afucosylated 20502 antibody (antibody, human IgG1, kappa)
heavy: QLQLQESGPGLVKPSETLSLTCTVSGGSIKSGSYYWGWIRQPPGKGLEWIGNIYYSGSTYYNPSLRSRVTISVDTSKNQFSLKLSSVTAADTAVYYCAREGSYPNQFDPWGQGTLVTVSS[human IgG1 constant region left out here]
light: EIVMTQSPATLSVSPGERATLSCRASQSVSSNLAWYQQKPGQAPRLLIYGASTRATGIPARFSGSGSGTEFTLTISSLQSEDFAVYYCQQYHSFPFTFGGGTKVEIKRTVAAPSVFIFPPSDEQLKSGTASVVCLLNNFYPREAKVQWKVDNALQSGNSQESVTEQDSKDSTYSLSSTLTLSKADYEKHKVYACEVTHQGLSSPVTKSFNRGEC
modifications: Fc glycan lacks fucose (afucosylated; made in CHO-y cells)
notes: Human IgG1/kappa anti-B7-H4 antibody; it differs only in lacking fucose on the Fc glycan; also called Ab-A

binding result: binds
B2: fucosylated 20502 antibody (antibody, human IgG1, kappa)
heavy: B1 heavy
light: B1 light
modifications: normally fucosylated Fc glycan (made in CHO-x cells)
notes: Human IgG1/kappa anti-B7-H4 antibody, normally fucosylated; also called Ab-F
